Test results reported in paper PMC10022797.

Assays:
[1] = biological target: GST-His6-BICD2-CT (aa 630–820) R690C (mouse) (UniProt Q921C5); assay: pull-down; GST-His6-BICD2-CT WT or mutant on glutathione magnetic beads, incubated 3 hrs at 4°C with untransfected or GFP-Nesprin-2 expressing HeLaM lysate (RIPA buffer); immunoblot with anti-RanBP2, anti-GFP and anti-GST, signal ratio normalised to wildtype
[2] = biological target: GST-His6-BICD2-CT (aa 630–820) R690C (mouse) (UniProt Q921C5); assay: as above; remark: listed apart in the source

Chain of UniProt Q921C5 (Q921C5 630-820 R690C): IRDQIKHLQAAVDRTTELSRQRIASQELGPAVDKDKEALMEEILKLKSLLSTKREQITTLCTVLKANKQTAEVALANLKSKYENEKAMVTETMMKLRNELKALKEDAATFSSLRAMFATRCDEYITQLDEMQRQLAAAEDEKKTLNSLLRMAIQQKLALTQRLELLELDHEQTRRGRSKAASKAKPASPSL

## RanBP2, endogenous in HeLaM cells (a stretch of the chain, letters omitted) (natural protein)
[1]
  fold change in RanBP2 binding against wildtype BICD2-CT: 2.8 fold
[2]
  fold change in RanBP2 binding against wildtype BICD2-CT: 2 fold

Read-outs that look alike come from different tables or passages of the source.
